From the RNAGym collection of RNA variant scans (doi:10.7554/elife.90254) come the findings set out here.

Read counts are not given, so values of variants with three or more changes are uncertain.

B1: OR4K15 (parent)
chain: GUUAACGGUCAUAGGCCAUGGAAACUAGGAGCACCAUUUCGCUGCCAGUGAAGAAAUGAACAAAGAAAAUCUGGGCCAGGCAGGCAUCAAAAGAAAUAGUCUUGCGCUCAACCAGAAAGUCUGUAAUCAUUUUAAGGGUA

Variants of B1 are the subject of this series. Description: self-cleavage, relative activity (ratio to wild type); higher = more cleavage; in vitro, sequencing; the parent is a self-cleaving ribozyme.
Take A18G C76U A95G U103C: the self-cleavage was 0.02. As to A18G A27G U38C A111G A129G, the self-cleavage stood at 0.05. The same measure for A18G U37C A59U: 2.47; for A18G A69G A118G: 1.39. In the case of A18G A94G A96G, the self-cleavage came to 1.37.

Take A18G U37C U108C U131C: the self-cleavage was found to be 0.02. For A18G A22C A23G U57A A63G A134G, the self-cleavage turned out to be 1.17.

Regarding A18G A62G A96G C105U, the self-cleavage was 0.09. Take A18C A56U A67G U108C U124C: the self-cleavage was 0.01. With A18G A51G A94G, the self-cleavage stood at 0.79. A18G U38C A111U: the self-cleavage came to 0.19. Regarding A18G A82U U127A, the self-cleavage came to 0.4. C17U U37C A135G U139C: the self-cleavage was 1.6.

For A18G A22G A59G A90G, the self-cleavage came to 1.04.

With A18G A23G A68G A90G, the self-cleavage is 1.6.

As to A18G A59G U120C U127C, the self-cleavage came out at 0.35. In the case of A18G A33G A63G A78G U102C, the self-cleavage came out at 0.47. Next, A18G A51G A62G: 1.18. The same measure for A18G A64C A98G U102C: 1.3; for A18G A52G C128U: 1.82. The same measure for A18G A82G A90U U108C A126U U130C: 0.04; for A18G U19A U49G A89G: 1.46. On to A18C A94G A116G U122A, for which the self-cleavage turned out to be 0.44. Turning to A18G A23G C45U A47U A51U A55G A125U, the self-cleavage turned out to be 0.71.

Take A18C C46A A91G: the self-cleavage is 0.84.

For the variant A18G U26C A27U C61U A110G, the self-cleavage worked out at 0.25. A18G A51G A95G A110G: the self-cleavage was 0.13. The same measure for A18C A86G U122C: 0.62; for A18G A64G A78C U102G: 0.

For the variant C17U U70A U87C, the self-cleavage was 0.54.

Take A18G A24G U120C U139C: the self-cleavage worked out at 0.79. As to A18G U19C A82U, the self-cleavage worked out at 0.34.

In the case of A18G A27U U102C, the self-cleavage came out at 1.38. For the variant A18G U37C A54G, the self-cleavage was 0.78. As to A18C U38G A111G A117G U132A, the self-cleavage was 0.01. Turning to A18G U19C A82G A92G U127C A129U, the self-cleavage was 0.23. Regarding A18G A47G A116U, the self-cleavage stood at 0.51. In the case of A18G A33G A52U A55G A78U, the self-cleavage stood at 0.11.

Turning to A18G U19G C76U, the self-cleavage worked out at 0.22. For C17U U38C A96G U97A A129G, the self-cleavage stood at 1.82. Take A18G U37C U43C A91G A94G: the self-cleavage came to 1.78.

On to C17U U19C A30G A67G A68G U122C U131C, for which the self-cleavage is 0.82. Turning to A18C A52U A78G, the self-cleavage is 0.12. A18G G58A A114U: the self-cleavage turned out to be 0.02. The same measure for A18G A24G U43C: 0.94; for A18G C109U A114G: 0.54; for A18C U100C U102C A111G A116G A135G: 0. The same measure for A18G A67U A111G: 0.01; for A18C U19C A22U A64G: 1.25; for A18G A68G A82G A90G A118G: 0.09. A18G A33G A54U: the self-cleavage was determined as 1.61. As for A18G A96G A126G, the self-cleavage turned out to be 1.62. For A18G A78C U132C U139A, the self-cleavage is 0.2. As to A18G U38A A52U A69G, the self-cleavage stood at 1.34. On to A18G A24G U39C A78G, for which the self-cleavage came to 0.48.

For A18C A59G A62G A64G, the self-cleavage is 1.09. A18G A110G U124C: the self-cleavage turned out to be 0.11. Turning to C17U A126G U139C A140U, the self-cleavage stood at 0.3. Next, A18G A86G U100C: 1.18; A18G A55G A92G A94G U100C: 1.18; A18G A36G A64U G93U: 1.31.

For A18G A92G A126G, the self-cleavage was 0.73. A18C U39C A52G A66G A89G A111G: the self-cleavage was found to be 0.07.

As to A18G A69G G106A G137A, the self-cleavage is 0.02. Take A18G A56G U120C: the self-cleavage was determined as 0.45.

For A18G G44A A55G U72C, the self-cleavage stood at 0.49.

In the case of A18G A24U A78U A116U A117G, the self-cleavage worked out at 0.04.

Regarding C17U C88A C109A, the self-cleavage amounted to 0.18. For A18G A22G A89U A94G, the self-cleavage turned out to be 0.41.

For A18G A90G U100C, the self-cleavage was 2.03. Regarding A18G A27C A116G, the self-cleavage came out at 0.74. In the case of A18G A59G A95G A111G, the self-cleavage was 0.08. With A18G A23G A51G A68U U108C A118G U127C, the self-cleavage came to 0.04. For A18G A30G A55G A63G A92G, the self-cleavage stood at 0.48. The same measure for A18C A118G U130C: 0.06. Take A18G U19C A52G A117G A135G: the self-cleavage was determined as 0.87. A18G A64U A126G: the self-cleavage amounted to 1.78. Next, A18G A36U A78G U103A: 0.23; A18G A47U A111G A126G: 0.02; A18C C40A A59G U122C: 0.59.

For A18G A23G A27G U37A U72C, the self-cleavage was 0.48. C17U A63G A135G: the self-cleavage came to 1.92.

As for A18G A95G U102C, the self-cleavage came out at 2.22.

With A18G A23C A36G A117U U120A U132G, the self-cleavage was found to be 1.33. For the variant A18G A64G A67G A94G, the self-cleavage turned out to be 1.62. Take A18G A30U A140G: the self-cleavage is 2.46. In the case of A18G A27G A63G A110U A116U, the self-cleavage amounted to 0.24. Regarding A18G A63G A110C, the self-cleavage amounted to 0.39. Next, C17U U72C U87G A91U A95G: 0.19. As to A18G A51G A64U A94G, the self-cleavage worked out at 1.15. For A18G C42U A52G A60G U87C U97C A126G, the self-cleavage was found to be 0.9.

On to A18C A92U A94G A118G, for which the self-cleavage came to 0.18. A18G A47U A64U A140C: the self-cleavage is 0.51.

For A18G A82U A140U, the self-cleavage stood at 0.16. With A18G A24G A56G A59U A111G C113U A135G A140G, the self-cleavage is 0.01. With A18G U26A A91G A98G U108C, the self-cleavage was determined as 0.01.

As for A18G A82U U132C U139C, the self-cleavage amounted to 0.05.

For A18G G21A U43C A116G, the self-cleavage was 1.58. On to A18C A22G A36G U100C U122C, for which the self-cleavage stood at 1.88. With C17U U37C A68G, the self-cleavage was 1.23. For A18G G75A U103C, the self-cleavage was 0.14. Next, A18G A24G U102C U132A: 0.73; C17U U49C A114G G136A: 0.27; C17U A117G A118G: 1.19. As for A18G A23G U87C, the self-cleavage came out at 1.02. For A18G U19A U43C C121U, the self-cleavage was 1.5.

For A18C A62G A92G U122A, the self-cleavage turned out to be 0.51.

On to A18G A60G A91G, for which the self-cleavage was 0.7. Consider A18G A82G A95C, for which the self-cleavage amounted to 0.36. Regarding A18G A22G U38C A67G A90G A116G, the self-cleavage is 0.14. For the variant C17U C85U A125G A140G, the self-cleavage came to 0.12. Take A18G A69G A95G A96G: the self-cleavage worked out at 1.22.

As for A18G A30G U103A A126C, the self-cleavage was 0.1. For the variant A18G A47G A69G A117G U122C, the self-cleavage was determined as 0.38.

For the variant A18G A67G A114G, the self-cleavage amounted to 0.29. Consider A18G U19C A55G, for which the self-cleavage came out at 1.21. As to A18G A68G U87C A91G, the self-cleavage worked out at 0.94. With A18G A22G A67G A110G, the self-cleavage is 0.28. In the case of A18G A52G C107U A111U, the self-cleavage was found to be 0.01. Next, A18G U19A U38A: 1.44; A18G U38A A117G A129G: 1.22. With A18G C71U A126G U132C, the self-cleavage is 0.05.

A18G A55U U100A U131C: the self-cleavage worked out at 0.42.

Regarding A18C C40A A82G, the self-cleavage was found to be 0.84. For A18C A55G A60G, the self-cleavage came to 0.89. On to A18G A24G A60U A64G A92G U108C A118G, for which the self-cleavage turned out to be 0.01. Consider A18G A55U U127C, for which the self-cleavage was 1.23. Consider A18G A91G A92U A114U A116G U132C, for which the self-cleavage was found to be 0.01.

Regarding A18G A51G U103C U132C U133A, the self-cleavage stood at 1.54. Consider A18G A64G U108C A135G, for which the self-cleavage was found to be 0.02. The same measure for A18G A111G A114G: 0.01. As to A18G A60G A92G, the self-cleavage is 1.24. Take A18G A22G U57C A60G A68G A95G C128U A135G: the self-cleavage worked out at 0.74.

In the case of A18G A91G A94G, the self-cleavage was 1.34. The same measure for A18G A60G A66U A114G: 0.06. For A18G A22U U39A A95G, the self-cleavage was found to be 2.1. Regarding A18G A52G C121U, the self-cleavage came to 2.69. On to A18G A82G U108C A126G, for which the self-cleavage amounted to 0.01. With C17U A95G G106A, the self-cleavage came out at 0.01. With A18G A51G U122C, the self-cleavage was 0.64. For A18C U87C A91G A116G, the self-cleavage amounted to 0.05. Take C17U C42U A55G C113U: the self-cleavage was determined as 0.05.

For the variant A18G A91G A111G A114G, the self-cleavage turned out to be 0.02. The same measure for A18G A56G A68G: 0.4; for A18G U38A A67G G83A A91G A95G U102C U124C: 0.22; for C17U A55G A111G: 0.06. Turning to A18G U38C A59G A92G A98G A116G, the self-cleavage was 0.28. For A18G A96G U139C, the self-cleavage is 0.58. Next, C17U A91G U103C A118G: 0.05; A18G A91G A140G: 1.21. In the case of A18G A36G A92G C105U, the self-cleavage amounted to 0.38. Turning to A18G U37C U87C, the self-cleavage was 1.86.

In the case of A18C A86G A135G, the self-cleavage was found to be 1.32. Turning to A18G A24G A67G A89G A91G A92G U124C, the self-cleavage amounted to 0.65. In the case of A18G G41A A64G, the self-cleavage turned out to be 0.98. For the variant A18G G104A U120C, the self-cleavage was determined as 0.02. For A18G A47U A116G, the self-cleavage came out at 0.49.

With A18G A33U A55G A66G, the self-cleavage was 1.05. As for A18G U37C U131C, the self-cleavage came to 0.79. Consider A18G A36G U43C A52G U103A U130C, for which the self-cleavage is 0.13.

Take A18G A55G A90U A125G: the self-cleavage amounted to 0.36. For the variant A18G A51G A116G, the self-cleavage was found to be 0.35. For C17U A92G A94G, the self-cleavage was found to be 1.6.

On to A18G C45G A52G A66G, for which the self-cleavage was determined as 1.33.

On to A18G A24U C25U U57A A118G, for which the self-cleavage was found to be 0.73. Take A18G A82U A94U U122A: the self-cleavage came to 0.12. Turning to A18G A67G A68G A86G, the self-cleavage worked out at 0.88.
